# Paper PMC4336329 (PLoS ONE, 2015)
# About 2,200 (0.71%) of roughly 310,000 compounds showed an effect of 50% or more. The effect is printed as a negative number. Some of the results follow.
# Target: human ether-à-go-go-related gene (hERG) potassium channel (human, UniProt Q12809)
# Experiment: primary screen, population patch clamp on CHO cells stably expressing hERG
# Sequence of human ether-à-go-go-related gene (hERG) potassium channel (Q12809 whole entry, looked up): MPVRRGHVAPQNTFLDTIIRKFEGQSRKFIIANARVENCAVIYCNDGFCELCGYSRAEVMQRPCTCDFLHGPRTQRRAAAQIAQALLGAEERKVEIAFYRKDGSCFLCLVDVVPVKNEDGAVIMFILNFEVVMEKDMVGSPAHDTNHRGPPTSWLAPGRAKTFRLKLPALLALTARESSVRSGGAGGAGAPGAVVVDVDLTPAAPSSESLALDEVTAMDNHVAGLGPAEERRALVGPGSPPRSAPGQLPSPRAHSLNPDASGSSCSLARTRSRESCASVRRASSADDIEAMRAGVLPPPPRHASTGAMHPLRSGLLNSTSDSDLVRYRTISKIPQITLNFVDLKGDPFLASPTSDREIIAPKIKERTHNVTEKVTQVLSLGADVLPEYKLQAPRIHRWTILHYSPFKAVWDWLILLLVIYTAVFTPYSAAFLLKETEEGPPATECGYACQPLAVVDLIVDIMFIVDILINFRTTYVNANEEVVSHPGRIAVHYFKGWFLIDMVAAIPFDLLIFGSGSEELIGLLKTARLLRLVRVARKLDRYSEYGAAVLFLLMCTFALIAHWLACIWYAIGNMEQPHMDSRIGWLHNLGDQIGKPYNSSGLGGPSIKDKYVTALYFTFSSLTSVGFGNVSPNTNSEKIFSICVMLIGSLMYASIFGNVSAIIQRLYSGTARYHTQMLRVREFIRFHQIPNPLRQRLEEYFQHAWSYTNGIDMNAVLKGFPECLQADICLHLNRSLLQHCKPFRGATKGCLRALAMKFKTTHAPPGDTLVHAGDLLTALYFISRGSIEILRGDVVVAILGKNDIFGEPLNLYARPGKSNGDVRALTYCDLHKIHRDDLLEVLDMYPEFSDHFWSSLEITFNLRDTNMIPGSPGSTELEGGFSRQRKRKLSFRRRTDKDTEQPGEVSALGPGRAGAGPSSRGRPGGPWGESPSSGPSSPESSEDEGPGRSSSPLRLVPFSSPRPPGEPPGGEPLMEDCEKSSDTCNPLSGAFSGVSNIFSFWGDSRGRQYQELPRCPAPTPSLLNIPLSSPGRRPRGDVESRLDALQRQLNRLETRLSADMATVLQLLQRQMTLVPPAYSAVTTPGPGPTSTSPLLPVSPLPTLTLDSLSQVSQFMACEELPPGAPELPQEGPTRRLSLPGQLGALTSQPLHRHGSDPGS
row,SMILES,"hERG current change (%, negative = inhibition) at 1uM [%]"
1,CCCN(CCC)CCCNC(=O)c1cn(CC)c2ccc(S(=O)(=O)N3CCc4ccccc4C3)cc2c1=O,-47.9
2,C/C(CC(=O)NCc1ccccc1)=N\NC(N)=S,12.6
3,COCCN(C(=O)CSc1ncc(C(F)(F)F)cc1Cl)c1c(N)n(Cc2ccccc2)c(=O)[nH]c1=O,11.3
4,Cc1cc(C)c2nc(NCCCNC(=S)NCCCN(C)C)c(C#N)cc2c1,15.7
5,CCC(C)NC(=O)CS(=O)Cc1nc(-c2cccc(OC)c2)oc1C (stereo not drawn),10.1
6,C=CCn1c(N)cc(=O)nc1SCC(=O)Nc1cccc2ccccc12,7.26
7,O=C1Nc2ccccc2C1=Nc1ccc(Cl)cc1,9.42
8,COc1ccc(CNC(=O)C2(CC3CC(c4ccccc4)=NO3)CCN(C(=O)c3cccc(O)c3)CC2)cc1 (stereo not drawn),8.84
9,O=[n+]1c2c(n([O-])c3cc(F)c(F)cc31)CCCC2,9.84
10,COc1cc(/C(C)=N/Nc2ccc(C(=O)O)cc2)cc(OC)c1OC,1.3
11,COc1ccc(OC)c(C(=O)Cn2c3[n+](c4ccc(C(F)(F)F)cc42)CCCCC3)c1.[Cl-],7.45
12,COC(=O)C1N[C@@H]([C@@H](NC(=O)COc2ccccc2)C(=O)Nc2ccc(OC)cc2)SC1(C)C (stereo partly drawn),8.15
13,COc1cc(OC)cc(Oc2ccc(S(=O)(=O)N3CCCCC3)cc2[N+](=O)[O-])c1,9.91
14,Cc1ccc(S(=O)(=O)Nc2c(C)nn(C)c2C)c(C)c1,6.73
15,CCCCNC(=O)CNC(=O)c1cccs1,14.4
16,Cc1ccccc1C(=O)NCCN=C1NS(=O)(=O)c2ccccc21,13.5
17,COCCN(C(=O)c1ccc(-c2ccc(Cl)cc2)o1)c1c(N)n(CC(C)C)c(=O)[nH]c1=O,18.7
18,COc1ccc(CC(=O)N/N=C/c2cccs2)cc1OC,2.89
19,COc1ccc(-c2noc(CCC(=O)NCc3cccnc3)n2)cc1OC,12.9
20,Cc1nnc(SCC2=C(C(=O)[O-])N3C(=O)C(NC(=O)Cc4ccccc4)C3SC2)s1.[Na+] (stereo not drawn),11
21,CC(=O)Nc1cccc(OC(=O)N2CCOCC2)c1,11
22,Cc1ccc(S(=O)(=O)N2CCN(C(=O)c3ccc(N4CCCC4)c([N+](=O)[O-])c3)CC2)cc1,6.97
23,O=C(CSc1ccccc1F)NC(=O)NCc1ccco1,4.94

row,SMILES,"hERG current change (%, negative = inhibition) at 1uM [%]"
1,CC(=O)NC(C)C(=O)OCC(=O)c1ccc(-c2ccccc2)cc1 (stereo not drawn),16.6
2,CCOCCn1c(=NC(=O)c2ccc(S(=O)(=O)N3CCOCC3)cc2)sc2cc(S(N)(=O)=O)ccc21,6.79
3,O=C(Nc1nc2ccccc2[nH]1)c1cccc(S(=O)(=O)N2CCOCC2)c1,3.76
4,CN(C)c1oc(-c2ccccc2Cl)nc1C#N,2.86
5,COc1ccc2[nH]c(C(=O)NCc3ccccc3)cc2c1,8.83
6,CCOC(=O)Cc1csc(NC(=O)CN2C(=O)c3ccccc3S2(=O)=O)n1,3.55
7,N#C/C(=C\c1ccccc1)c1ccccn1,13.3
8,O=C(CSc1nc2ccccc2[nH]1)NCCN1CCCCC1,4.78
9,Cc1cc(C)c(NC(=O)CNC(=O)c2ccc3c(=O)n4c(nc3c2)CCC4)c(C)c1,2.6
10,Cn1ncc(Cl)c1C(=O)Nc1ccc(CN2CCCCC2)cc1,20.5
11,Cc1ccccc1NC(=O)Cc1nc(COC(=O)CCc2ccccc2)cs1,6.6
12,CCC(=O)N1CCc2cc(Br)cc(S(=O)(=O)N3CCCCC3CC)c21 (stereo not drawn),6.11
13,Cc1cccc(OCC(=O)N(Cc2ccco2)C2CCS(=O)(=O)C2)c1 (stereo not drawn),1.08
14,N/C(=N\c1nc2ccccc2o1)NC(=O)c1ccccc1,16.6
15,COc1cccc(NC(=O)c2oc3ccc(S(=O)(=O)N4CCOCC4)cc3c2C)c1,10.7
16,CCOc1cc(C(=O)N2CCC(CC3CC(c4ccc(Cl)cc4)=NO3)(C(=O)NCC3CCCCC3)CC2)cc(OCC)c1OCC (stereo not drawn),11.9
17,Cl.N=C(c1ccc([N+](=O)[O-])cc1)N1CCCCCC1,-2.78
18,Cn1cc(CNC(=O)c2sc3cccc(Cl)c3c2Cl)cn1,-1.68
19,Cc1cc(C)c(S(=O)(=O)N2CCOCC2)cc1NS(=O)(=O)c1cc(OCC(N)=O)c(C)cc1Cl,15.8
20,Cc1ccc(C2(c3noc(CN4C[C@@H](C)O[C@@H](C)C4)n3)CCCC2)cc1,10.1
21,O=C(NNC(=O)C1C2CCC(C2)C1C(=O)O)c1cccc(Cl)c1 (stereo not drawn),6.27
22,COC(=O)Cn1cc(/C=N/NC(=O)COc2cccc3cccnc23)c2ccccc21,3.35
